T1: human CD154 on CHO-K1 cells transfected with CD154-pcDNA3.1Zeo(+) (human, UniProt P29965 1-261)
T1 construct: also called CHO-CD154; CHO cell line expressing human CD154
T1 sequence: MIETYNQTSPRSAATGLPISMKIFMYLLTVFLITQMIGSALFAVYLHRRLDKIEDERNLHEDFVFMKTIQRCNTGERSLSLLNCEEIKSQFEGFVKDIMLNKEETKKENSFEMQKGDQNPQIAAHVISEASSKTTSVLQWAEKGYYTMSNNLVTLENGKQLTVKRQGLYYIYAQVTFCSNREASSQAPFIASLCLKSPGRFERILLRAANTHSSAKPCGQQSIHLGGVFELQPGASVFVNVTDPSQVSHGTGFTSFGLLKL

T2: CD25-Fc (recombinant human IL-2 R alpha/Fc Chimera, R&D systems) (human, UniProt P01589 22-240)
T2 construct: extracellular domain; Bought chimera, held on the plate by the capture mAb; also called captured CD25-Fc; Fc part of the bought chimera not given; not described
T2 sequence (looked up): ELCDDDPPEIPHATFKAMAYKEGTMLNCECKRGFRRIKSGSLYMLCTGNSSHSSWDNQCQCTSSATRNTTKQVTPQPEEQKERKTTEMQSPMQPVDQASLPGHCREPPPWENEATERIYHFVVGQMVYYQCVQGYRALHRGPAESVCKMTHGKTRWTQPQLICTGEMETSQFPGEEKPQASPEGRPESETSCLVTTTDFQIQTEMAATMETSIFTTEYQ

T3: Recombinant human vascular endothelial growth factor (165 aminoacids, rhuVEGF165) produced in insect cells … (human, UniProt P15692 27-191)
T3 construct: mature; Bought protein; also called rhuVEGF165 (insect cells)
T3 sequence (looked up): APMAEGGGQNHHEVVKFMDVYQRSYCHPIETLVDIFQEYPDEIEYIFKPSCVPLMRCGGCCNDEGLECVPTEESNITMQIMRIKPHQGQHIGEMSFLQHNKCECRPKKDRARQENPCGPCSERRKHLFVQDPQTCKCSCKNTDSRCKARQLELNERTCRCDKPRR


Legend:
[1] = molecular target: T4, human serum albumin (HSA, Sigma) (human, UniProt P02768 25-609); assay: ELISA, control coated, mutein dilution series
T4 construct: Control protein; also called HAS; human serum albumine

[2] = molecular target: T1, human CD154 on CHO-K1 cells transfected …; assay: flow cytometry on CHO cells expressing human CD154, fluorescein-labelled monomeric mutein
Protocol: The mutein F92.8 M1.2 E15 was tested for specific binding to a CHO cell line expressing human CD25 in a flow cytometry assay. For this purpose, the CD25-pcDNA3.1 Zeo(+)- or CD154-pcDNA3.1Zeo(+)-transfected CHO cells described in Examples 15 and 22, respectively were detached from culture flasks with 0.2% w/v EDTA. Approximately 200,000 cells were resuspended in 30 μl PBS/2% v/v FCS and incubated with 2.5 μg of monomeric F92.8 M1.2 E15 fraction obtained as described in Example 20 and labeled at a twofold molar ratio with fluorescein (Fluorescein-5(6)-carboxamido caproic acid N-succinimidyl ester; Fluka) based on the protocol described in Schlehuber and Skerra (supra). As a negative control, 2.5 μg of the recombinant wild type TLPC encoded by pTLPC8 and labeled with fluorescein at a twofold molar ratio was employed. CD25 expression was confirmed with FITC-labeled anti-CD25 mAb (Acris, DM519F), using FITC-labeled IgG1 (Acris, SM10F) as isotype control. After 30 min incubation on ice, cells were washed twice with PBS/2% v/v FCS prior to analysis by flow cytometry using a FACSCalibur (Becton Dickinson).

[3] = molecular target: T2, CD25-Fc (recombinant human IL-2 R …); assay: ELISA, CD25-Fc (2.5 µg/ml) captured via capture mAb, mutein dilution series, Streptactin-HRP detection; apparent KD from curve fit
Protocol: (§1) For this purpose, the wells of a black Fluotrac 600 microtiter plate (Greiner; 384 well) were coated with the capture mAb (Mouse Anti-Human IgG, Fcgamma Fragment Specific; Jackson ImmunoResearch) at a concentration of 5 μg/ml for 1 h at RT or OIN at 4° C. After a washing step and a subsequent blocking step with 3% w/v milk powder in PBST, CD25-Fc at a concentration of 5 μg/ml was added and incubated for one hour at RT. In parallel, the unrelated proteins capture mAb, HSA and FCS (Fetal Calf Serum; Invitrogen) were coated at concentrations of 5 μg/ml, 10 μl/ml and 10 μg/ml, respectively. In addition, human IgG Fc fragment (Accurate Chemical) was captured at a concentration of 5 μg/ml via the capture mAb coated at 5 μg/ml.
(§2) After another washing step, a dilution series of the mutein S67.7 C6 in PBST covering an appropriate concentration range was added to the captured CD25-Fc and the control proteins capture mAb, HSA, FCS and captured human IgG Fc fragment and incubated for 1 h at RT. Bound mutein was subsequently detected via Streptactin-HRP conjugate (MBA) and the fluorogenic HRP-substrate QuantaBlu™ (PIERCE) according to the respective manufacturers' recommendations. After an appropriate incubation time at room temperature, fluorescence was excited at a wavelength of 320 nm (±12.5 nm) and measured at 430 nm (±17.5 nm) in a GENiosPlus plate reader. […]

[4] = molecular target: T2, CD25-Fc (recombinant human IL-2 R …); assay: ELISA, CD25-Fc (5 µg/ml) captured via capture mAb, mutein dilution series, Streptactin-HRP detection; apparent KD from curve fit
Protocol: as §1, §2

[5] = molecular target: T4, human serum albumin (HSA, Sigma); assay: ELISA, HSA coated at 10 µg/ml, mutein dilution series
Protocol: (§3) For this purpose, the wells of black Fluotrac 600 ELISA plates (Greiner; 384 well) were coated with 20 μl of hCD22 (5 μg/ml, Peprotech) or control proteins hCD33-Fc (1 μg/ml, R&D Research), HSA (10 μg/ml, Sigma), hIgG1 (10 μg/ml, Jackson ImmunoResearch) O/N at 4° C.
(§4) After another washing step, a dilution series of the mutein S76.1H10, obtained in Example 9, in PBST covering an appropriate concentration rage was added to the coated hCD22 and the control proteins hCD33-Fc, HSA and hIgG1 and incubated for 1 h at RT. Bound mutein was subsequently detected via Streptactin-HRP conjugate (IBA) and the fluorogenic HRP-substrate QuantaBlu™ (PIERCE) according to the respective manufacturers' recommendations. After an appropriate incubation time at room temperature, fluorescence was excited at a wavelength of 320 nm (±12.5 nm) and measured at 430 nm (±17.5 nm) in a GENiosPlus plate reader.

hCD33-Fc (R&D) = molecular target: T5, hCD33-Fc (R&D) (human, UniProt P20138 18-259); assay: ELISA, hCD33-Fc coated at 1 µg/ml, mutein dilution series
T5 construct: extracellular domain; Bought from R&D (printed as R&D Research and as R&D Systems); not shown: Fc part of the bought fusion protein; not described
Protocol: as §3, §4

[6] = molecular target: T6, bovine serum albumin (BSA; Roth) (bovine, UniProt P02769 25-607); assay: ELISA, BSA coated at 10 µg/ml, mutein dilution series
T6 construct: Control protein
Protocol: (§5) The affinity of the TLPC muteins for VEGF was measured as follows. In brief, a dilution series of the mutein S69.4 O13 obtained as described in Example 5 was tested in an ELISA assay for binding to rhuVEGF165 and the control protein BSA.
(§6) For this purpose, the wells of a black Fluotrac 600 microtiter plate (Greiner; 384 well) were coated with 1 μg/ml rhuVEGF165 (insect cells) and 10 μg/ml BSA (Roth) 0/N at 4° C. and blocked with 2% w/v BSA in PBST/0.1. After a washing step, a subsequent blocking step with 3% w/v milk powder in PBST and another washing step, a dilution series of the mutein S69.4 O13 in PBST covering an appropriate concentration range was incubated for 1 h at RT in the coated and blocked wells. Bound mutein was subsequently detected via anti-17 monoclonal antibody-HRP-conjugate and the fluorogenic HRP-substrate QuantaBlu™ as described above. After an appropriate incubation time at room temperature, fluorescence was excited at a wavelength of 320 nm (±12.5 nm) and measured at 430 nm (±17.5 nm) in a GENiosPlus plate reader.

[7] = molecular target: T3, Recombinant human vascular endothelial …; assay: ELISA, rhuVEGF165 coated at 1 µg/ml, mutein dilution series, anti-T7 mAb-HRP detection; apparent KD from curve fit
Protocol: as §5
as §6, with “After a washing step, a subsequent blocking step with 3% w/v milk powder in PBST and another washing step, a dilution series of the mutein S69.4 O13 in PBST covering an appropriate concentration range was incubated for 1 h at RT in the coated and blocked wells.” left out
The curve was fitted by non-linear least squares regression with the help of the computer program Kaleidagraph (Synergy software) according to the equation [P·L]=([P]ₜ[L]ₜ)/(KD+[P]ₜ). Thereby [P]ₜ is the total concentration of immobilized target (in relative fluorescence units), [L]ₜ is the concentration of the applied TLPC mutein, respectively, [P·L] is the concentration of the formed complex (in relative fluorescence units, rFU), and KD is the apparent dissociation constant.

T4 sequence (P02768 25-609 limits assumed): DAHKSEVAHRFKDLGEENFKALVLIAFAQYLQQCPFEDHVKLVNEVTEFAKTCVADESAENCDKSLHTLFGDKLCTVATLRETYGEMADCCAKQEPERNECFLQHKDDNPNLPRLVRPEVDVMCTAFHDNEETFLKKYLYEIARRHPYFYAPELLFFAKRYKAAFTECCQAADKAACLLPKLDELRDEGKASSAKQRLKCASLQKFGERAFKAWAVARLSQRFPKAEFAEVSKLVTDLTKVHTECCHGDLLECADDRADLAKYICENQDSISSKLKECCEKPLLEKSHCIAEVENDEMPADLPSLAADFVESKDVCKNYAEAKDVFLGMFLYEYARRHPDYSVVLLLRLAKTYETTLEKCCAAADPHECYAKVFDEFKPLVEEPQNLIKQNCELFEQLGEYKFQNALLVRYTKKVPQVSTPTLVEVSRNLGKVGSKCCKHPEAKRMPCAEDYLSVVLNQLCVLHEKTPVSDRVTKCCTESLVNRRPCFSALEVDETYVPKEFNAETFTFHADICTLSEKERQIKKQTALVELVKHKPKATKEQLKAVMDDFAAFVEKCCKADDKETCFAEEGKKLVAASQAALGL
Sequence of hCD33-Fc (R&D) (P20138 18-259): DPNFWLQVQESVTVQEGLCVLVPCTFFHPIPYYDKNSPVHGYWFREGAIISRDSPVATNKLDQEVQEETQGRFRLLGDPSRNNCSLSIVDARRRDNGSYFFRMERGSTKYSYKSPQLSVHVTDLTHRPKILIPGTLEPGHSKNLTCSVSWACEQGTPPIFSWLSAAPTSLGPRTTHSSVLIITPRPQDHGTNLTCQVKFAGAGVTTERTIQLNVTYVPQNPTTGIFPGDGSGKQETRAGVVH
Sequence of UniProt P02769 (P02769 25-607 limits assumed): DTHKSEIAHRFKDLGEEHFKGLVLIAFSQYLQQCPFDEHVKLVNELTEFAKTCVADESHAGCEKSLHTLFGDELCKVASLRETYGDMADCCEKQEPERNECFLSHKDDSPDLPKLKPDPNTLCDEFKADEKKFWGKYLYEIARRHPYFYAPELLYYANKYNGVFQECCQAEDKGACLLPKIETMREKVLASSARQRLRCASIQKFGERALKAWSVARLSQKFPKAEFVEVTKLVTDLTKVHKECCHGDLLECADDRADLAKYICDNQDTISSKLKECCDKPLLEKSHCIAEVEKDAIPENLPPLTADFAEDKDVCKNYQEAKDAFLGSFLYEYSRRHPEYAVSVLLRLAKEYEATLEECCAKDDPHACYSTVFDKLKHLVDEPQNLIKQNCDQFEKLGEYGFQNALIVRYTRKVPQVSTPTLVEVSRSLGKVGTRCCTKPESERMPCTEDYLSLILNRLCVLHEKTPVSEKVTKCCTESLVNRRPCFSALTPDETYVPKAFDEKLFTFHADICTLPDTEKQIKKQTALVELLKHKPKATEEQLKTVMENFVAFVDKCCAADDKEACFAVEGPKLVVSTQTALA

binding result [1] | binding result [5] | binding result (hCD33-Fc (R&D)) | Binder | other results
no binding |  |  | TLPC mutein F92.8 M1.2 E15, monomeric fraction (designed binder, For flow cytometry the protein was labelled with fluorescein (NHS ester, twofold molar ratio). It was unlabelled in the ELISA., Made from pTLPC9 in E. coli W3110, with Strep-tag II; For flow cytometry the monomeric fraction was labelled with fluorescein at a twofold molar ratio; also called F92.8 M1.2 E1S) DGGVGRRGLSGTWYLKAMAVDREFPEMNLESVTPMTLTGLAGGDLGVKVTMLISGRCQEVKAVLEGTNELDKYTADGGKHVAYIIHSHVTDHLILYSEGQLHGKPVRGVKLVGRDPKNNLEALEDFEKAAGARGLSTESILIPRQSETCSPGSAWSHPQFEK | binding result [2]: no binding (tested: 2.5 µg in 30 µl); Kd [3]: 131 nM
no binding |  |  | TLPC mutein S67.7 C6 (designed binder, Made from pTLPC8, with C-terminal T7 tag and Strep-tag II; monomeric fractions were used; For flow cytometry it was labelled with fluorescein at an equimolar ratio; also called S67.7-C06) DGGVGRRGLSGTWYLKAMTVDREFPEMNLESVTPMTLTGLAGGDLEAKVTMLISGRCQEVKAVLEGTNELDKYTADGGKHVAYIIHSHVTDHLIFYSEGQLHGKPVRGVKLVGRDPKNNLEALEDFEKAAGARGLSTESILIPRQSETCSPGDASMTGGQQMGSAWSHPQFEK | Kd [4]: 1180 nM
 | no binding | no binding | TLPC mutein S76.1 H10 Monomer (designed binder, Made from pTLPC8, with T7-tag and Strep-tag II at the C-terminus; This is the monomeric peak of the size exclusion chromatography; also called CD22 S76.1 H10 Monomer) DGGRWRVCWSGTWYLKAMTVDREFPEMNLESVTPMTLTQLDGKNLEAKVTMLISGRCQEVKAVLELTNEGVKYTADGGKHVAYIIPSRVSDHFIFYSEGQLHGKPVRGVKLVGRDPKNNLEALEDFEKAAGARGLSTESILIPRQSETCSPGDASMTGGQQMGSAWSHPQFEK | 
 | no binding | no binding | TLPC mutein S76.1 H10 Dimer (designed binder, Same polypeptide as the monomer; this is the dimeric peak of the size exclusion chromatography; C-terminal T7-tag and Strep-tag II (pTLPC8); also called CD22 S76.1 H10 Dimer) DGGRWRVCWSGTWYLKAMTVDREFPEMNLESVTPMTLTQLDGKNLEAKVTMLISGRCQEVKAVLELTNEGVKYTADGGKHVAYIIPSRVSDHFIFYSEGQLHGKPVRGVKLVGRDPKNNLEALEDFEKAAGARGLSTESILIPRQSETCSPGDASMTGGQQMGSAWSHPQFEK | 
 |  |  | TLPC mutein S69.4 O13 (designed binder, Mutein of human tear lipocalin (closed-end library); Made from pTLPC8 in E. coli, so it carries a C-terminal T7 detection tag followed by Strep-tag II; Monomeric gel filtration fractions were used; also called S69.4 013; VEGF S69.4-O13) DGGGIRRSMSGTWYLKAMTVDREFPEMNLESVTPMTLTLLKGHNLEAKVTMLISGRCQEVKAVLGRTKERKKYTADGGKHVAYIIPSAVRDHVIFYSEGQLHGKPVRGVKLVGRDPKNNLEALEDFEKAAGARGLSTESILIPRQSETCSPGDASMTGGQQMGSAWSHPQFEK | binding result [6]: no binding; Kd [7]: 109 nM

Source: patent publication US20070224633A1 (Pieris, published 2007)
